According to the supplement of paper PMC3334620:
The full ranking holds about 33,000 sequences; the median of “E-score (-0.5 to 0.5)” is about -0.054, and the highest 2% start at about 0.35. The list shows a part of the results.

molecular target: T1, Stb5 (UniProt P38699); assay: PBM E-score (8-mer binding enrichment) (E-score (-0.5 to 0.5)); higher = stronger / more preferred TF binding; most listed sequences are background and not binding sites; settings: protein concentration: 200 nM; construct: GST-full length
T1 sequence: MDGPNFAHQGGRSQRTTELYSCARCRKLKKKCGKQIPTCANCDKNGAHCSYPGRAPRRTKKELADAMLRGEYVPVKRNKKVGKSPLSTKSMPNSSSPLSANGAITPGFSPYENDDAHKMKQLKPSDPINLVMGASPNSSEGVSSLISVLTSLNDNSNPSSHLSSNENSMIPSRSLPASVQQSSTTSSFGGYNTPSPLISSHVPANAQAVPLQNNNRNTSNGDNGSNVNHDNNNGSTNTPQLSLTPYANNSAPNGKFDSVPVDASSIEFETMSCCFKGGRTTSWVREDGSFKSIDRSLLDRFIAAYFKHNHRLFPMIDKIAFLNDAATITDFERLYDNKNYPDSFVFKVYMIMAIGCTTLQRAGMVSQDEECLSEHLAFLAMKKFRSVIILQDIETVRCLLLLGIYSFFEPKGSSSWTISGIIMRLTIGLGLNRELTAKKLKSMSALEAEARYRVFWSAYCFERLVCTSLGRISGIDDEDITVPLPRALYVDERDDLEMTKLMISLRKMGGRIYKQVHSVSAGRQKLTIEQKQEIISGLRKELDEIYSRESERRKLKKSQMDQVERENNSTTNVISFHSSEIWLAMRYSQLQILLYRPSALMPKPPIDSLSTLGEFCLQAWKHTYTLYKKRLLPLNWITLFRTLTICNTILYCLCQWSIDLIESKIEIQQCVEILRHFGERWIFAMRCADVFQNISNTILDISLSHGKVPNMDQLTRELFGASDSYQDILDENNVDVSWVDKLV
How it was run: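 Universal all-10-mer Agilent arrays, double-stranded by primer extension on fresh or once-stripped slides, were probed with about 100-200 nM GST-tagged yeast transcription factors made by PURExpress. Fluorescent anti-GST detected bound protein, and masliner normalised the scans. E-scores from the Universal PBM Analysis Suite were given to each ungapped eight-base word pooled with its reverse complement.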

Row | Sequence | PBM E-score
1 | CCGCTTGA | 0.29
2 | GCGTGGCA | -0.121
3 | AACAGGCG | 0.0259
4 | CAGTGTTA | -0.169
5 | ATAATGTA | -0.183
6 | CAGCTATG | -0.259
7 | CATGGACA | -0.32
8 | CTGGTGCC | 0.0505
9 | TGGACGAA | -0.0764
10 | ACGCCCGT | 0.207
11 | CGTTGAGC | 0.127
12 | ATACCATA | -0.0647
13 | AAATAACT | 0.0736
14 | AGCTATGG | -0.183
15 | CGACACCG | 0.371
16 | CATTAAGG | 0.0273
17 | TACGTCCA | -0.029
18 | ACGGCGAA | 0.13
19 | CATGAAAC | -0.0171
20 | ATCTGTAC | 0.0786
21 | CCCTGGTA | -0.293
22 | GTCGACGA | 0.0221
23 | GAAAGGCA | 0.126
24 | CAACCTAA | -0.242
25 | GGAGTGGA | -0.221

Row | Sequence | PBM E-score
26 | AAGTCGCG | 0.0857
27 | AACGAGCG | 0.0519
28 | AATCTGGC | 0.0172
29 | GATGCTCA | 0.0136
30 | ATTCTGCG | 0.0249
31 | CACCTGAA | -0.0903
32 | CTGCTTTA | -0.129
33 | GGACAGTA | 0.01
34 | CTACCGGA | 0.127
35 | TCGGTTCA | -0.0201
36 | CACCTATC | 0.0464
37 | GCTCGACC | -0.275
38 | CGGACTTC | 0.374
39 | TAAAATAA | 0.0899
40 | ACAGTAAT | -0.154
41 | CACCACAG | -0.0283
42 | CCCTGACC | -0.231
43 | ACCAAACA | 0.101
44 | CGACTCTA | -0.103
45 | ATGATAGA | -0.0919
46 | CCTACAAG | -0.119
47 | GAGAGATA | 0.0329
48 | ACAGCCCC | -0.0495
49 | GCGCAGAC | 0.117
50 | AAGGCTTC | -0.137

Row | Sequence | PBM E-score
51 | CTCCCGAC | 0.226
52 | ACGCGATG | -0.0822
53 | CCTTTCAA | -0.164
54 | CCAGAAGA | -0.258
55 | CGGTTCAG | -0.0792
56 | CAGAAATG | -0.128
57 | GGGTGAGA | -0.103
58 | ACTGTATA | -0.133
59 | CTAGCGTC | 0.0861
60 | ATGAACGG | 0.237
61 | AGTGATCG | -0.112
62 | GTATAGAA | -0.0198
63 | CAAAGAAC | 0.117
64 | CCATCAGA | -0.0847
65 | ACCTCAAC | -0.163
66 | CCCTCAAG | -0.255
67 | AGGATCAC | -0.151
68 | CTCGGTGA | 0.244
69 | CTGACGTA | 0.0234
70 | ACCGGTGG | 0.346
71 | CCACAGAC | -0.248
72 | GGACTCAC | 0.0404
73 | GAGGTCAC | -0.124
74 | CGACCCCC | 0.0808
75 | ATGAACCG | 0.00986

Row | Sequence | PBM E-score
76 | ACGAAAGC | -0.00125
77 | AATCGTCG | 0.0528
78 | CCCCGAAA | 0.287
79 | ACCTTAAG | -0.113
80 | TAATCACA | -0.0555
81 | ATCTGCTA | -0.268
82 | GTGGTAGA | -0.0275
83 | AATGCGCG | 0.207
84 | ACACGCCT | -0.216
85 | CTCGCGCA | 0.0579
86 | AGAAGCTA | 0.09
87 | CAAGGCGG | 0.182
88 | ACGTTGAC | -0.151
89 | AATGGCAC | 0.104
90 | GCAGGTAA | 0.136
91 | GTCCCCAA | -0.0921
92 | ATACCCAA | -0.146
93 | CCGTCGAC | 0.235
94 | GCTGATAC | 0.125
95 | CCCCAGGA | -0.299
96 | AATGACCG | 0.365
97 | ACAGTAGT | -0.277
98 | CGTCTATA | 0.0913
99 | CACGACCC | -0.0181
100 | GCGTAGAA | -0.0526

Row | Sequence | PBM E-score
101 | ACTGTGTG | -0.0165
102 | ATTTTTAC | -0.0222
103 | AACCTAGT | -0.0124
104 | ATGTTGTA | -0.271
105 | AGCTGCTG | -0.192
106 | CCGCCGGC | 0.421
107 | CCGTCAGA | 0.164
108 | ACACAAAA | 0.0656
109 | CTTTCCCC | 0.0457
110 | ACTGAAAC | 0.0402
111 | ACGCGATC | -0.0459
112 | ATGCCCAA | -0.116
113 | GCCGATGA | 0.357
114 | GGCTTCAC | 0.0671
115 | GAGACACC | 0.0825
116 | AGTCTGAT | -0.333
117 | CGAGGACA | 4e-05
118 | ATCTGGTG | -0.124
119 | CATATAGA | 0.0684
120 | CTAAACGA | -0.0103
121 | CTTCTCGA | -0.267
122 | GACCTAAC | 0.0774
123 | GGAAAGGA | 0.072
124 | AAGTGTGT | -0.323
125 | AACGCCGG | 0.44

Row | Sequence | PBM E-score
126 | CCTGTACC | -0.17
127 | AATGAGAA | -0.0972
128 | CCGACAAC | 0.339
129 | CCTGTCAC | -0.0595
130 | AGTCGAAT | -0.199
131 | ACCCACCT | -0.144
132 | AACCGTTC | 0.128
133 | AGGTGGGC | -0.207
134 | GTGAAGTA | -0.0746
135 | CCCGAGGG | 0.0429
136 | TATAACAA | 0.109
137 | ATTTCGTC | -0.206
138 | CGCACGAC | 0.0385
139 | ATTGCACA | -0.251
140 | CGGGGAGC | 0.116
141 | GAGAAGTA | -0.0166
142 | AGTGTGAT | -0.203
143 | ACGCACAC | -0.126
144 | ATAAGCGA | 0.0109
145 | CGTCACAG | -0.0707
146 | AGTTCCTA | -0.085
147 | GCCATGGC | -0.0611
148 | ACAGAAGC | -0.155
149 | CTCCCAGA | -0.19
150 | AGCACCCA | 0.0695

Row | Sequence | PBM E-score
151 | GAGGGGGA | -0.12
152 | ATACGAAC | -0.164
153 | GCCTGGGA | -0.132
154 | ACTGATCG | -0.0682
155 | ACGGCAGA | 0.018
156 | CATCGAAC | -0.148
157 | AAACTACA | -0.173
158 | ATCATGTG | -0.165
159 | AACTTAGT | 0.0174
160 | GGCTCCCC | -0.104
161 | ATAATGCG | 0.0614
162 | CGGGATAC | 0.178
163 | ACATTTAA | 0.122
164 | GCCCGCAC | 0.166
165 | ACGATATG | -0.0261
166 | ATGTACGC | -0.204
167 | CTGACTCC | -0.0214
168 | GCACGGTA | 0.206
169 | CTCTTAAC | -0.0534
170 | ACGAGAAC | -0.162
171 | ACCTGATC | -0.115
172 | TATCAAGA | -0.221
